Assay results as given in the supplement of paper PMC7826260.
This is one part of the list. Each Rep nickase domain was tested in vitro on the same pool of single strands (3 µM enzyme, 1 h, 37 °C); shown is the middle of each 90-letter strand. A value is the log2 ratio of uncut reads to the pool without enzyme; uncut sequences lie near 0, cut ones below; no hit call is given. Reads are scaled to the total; where an enzyme cuts many sequences, the uncut ones exceed 0.

tested on: T1, Rep nickase domain of porcine circovirus 2; assay: uncleaved DNA left, log2 of reads against the no-enzyme library (log2 ratio); higher = less cleavage (more negative = more Rep cleavage of the k-mer); sequences stand for … in CTCGTCCG…ACCGGAGA
T1 sequence (Rep 2-116, printed without the tag): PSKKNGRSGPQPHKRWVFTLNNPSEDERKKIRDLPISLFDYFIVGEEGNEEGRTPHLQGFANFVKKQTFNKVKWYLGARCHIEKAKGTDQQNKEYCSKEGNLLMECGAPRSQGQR
Description: (§1)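 A pool of 90-nt single-stranded DNAs with seven random bases just before the constant AC of the nick site (name = the seven bases) was cut by 3 µM recombinant His6-SUMO-tagged Rep nickase domain (300 nM DNA, 50 mM HEPES pH 8.0, 50 mM NaCl, 1 mM MnCl2, 1 h, 37 °C, three replicates). Uncut DNA was amplified and sequenced.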

Sequence	uncleaved DNA left (log2)
CCATCGA	0.153
TACGGAC	0.0216
TGATCCA	-0.122
GCCTGAC	0.0462
TGATCCG	0.0661
TATAGTA	-0.474
GTGGAGT	0.33
CACTGAG	0.128
GGGTCTC	0.119
ATCAGCA	-0.0591
CCTTTTA	-0.131
CAGGCAT	0.0665
GCATTGG	0.0699
TTTGTAG	0.188
ACGCACG	0.207
ATATGGT	-0.424
ATACACG	0.0949
TCTGGTG	0.16
CCTGAGG	0.154
CCGCACG	0.0897

tested on: T2, Rep nickase domain of tomato golden mosaic virus; assay: as above
T2 sequence (Rep 1-124, printed without the tag): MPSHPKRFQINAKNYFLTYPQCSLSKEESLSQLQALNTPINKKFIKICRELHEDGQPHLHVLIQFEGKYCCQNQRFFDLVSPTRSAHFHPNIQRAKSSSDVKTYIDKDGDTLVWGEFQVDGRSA
Description: as §1

Sequence	uncleaved DNA left (log2)
AAAGTCC	0.057
AAGGTAG	0.159
ACAGATA	0.152
ATCCTCT	-0.105
CCCGCTC	0.0278
GAAAACC	-0.0527
ATTCGAG	1.84e-05
TCCCGTC	-0.0965
GGATGTG	-0.00341
ATAGCTC	-0.049
GGCTAGT	0.0603
ATAGGGT	0.155
TTCAGTG	-0.0451
GTACTGG	0.197
CAAAGTA	0.0561
CAATGGG	-0.0488
ATGAAAG	0.0789
ATAATGT	0.151
GTGACGT	-0.0484
CTACAAA	0.0117

Sequence	uncleaved DNA left (log2)
CCATCGA	0.0143
TACGGAC	0.0597
TGATCCA	-0.102
GCCTGAC	-0.0539
TGATCCG	-0.098
TATAGTA	-0.125
GTGGAGT	0.206
CACTGAG	0.0398
GGGTCTC	0.0706
ATCAGCA	0.0709
CCTTTTA	-0.0219
CAGGCAT	0.127
GCATTGG	-0.0308
TTTGTAG	0.05
ACGCACG	-0.0167
ATATGGT	0.0983
ATACACG	-0.122
TCTGGTG	-0.0653
CCTGAGG	0.349
CCGCACG	-0.0531

tested on: T3, Rep nickase domain of tomato yellow leaf curl virus; assay: as above
T3 sequence (Rep 1-136, printed without the tag): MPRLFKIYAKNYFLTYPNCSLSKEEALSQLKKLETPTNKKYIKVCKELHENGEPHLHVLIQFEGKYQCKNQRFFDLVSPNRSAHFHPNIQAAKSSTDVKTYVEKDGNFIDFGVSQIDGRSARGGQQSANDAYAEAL
Description: as §1

Sequence	uncleaved DNA left (log2)
AAAGTCC	0.0625
AAGGTAG	-0.0169
ACAGATA	0.0112
ATCCTCT	-0.0028
CCCGCTC	0.0634
GAAAACC	-0.0747
ATTCGAG	0.0672
TCCCGTC	-0.0445
GGATGTG	0.0425
ATAGCTC	-0.122
GGCTAGT	0.0203
ATAGGGT	-0.0991
TTCAGTG	0.0412
GTACTGG	0.0329
CAAAGTA	-0.151
CAATGGG	-0.0156
ATGAAAG	0.13
ATAATGT	0.0489
GTGACGT	0.0195
CTACAAA	-0.102

Sequence	uncleaved DNA left (log2)
CCATCGA	0.0407
TACGGAC	0.0097
TGATCCA	-0.0357
GCCTGAC	-0.12
TGATCCG	-0.0864
TATAGTA	-0.0528
GTGGAGT	0.0856
CACTGAG	0.164
GGGTCTC	0.0773
ATCAGCA	0.167
CCTTTTA	-0.0889
CAGGCAT	-0.00731
GCATTGG	0.149
TTTGTAG	0.0862
ACGCACG	0.0015
ATATGGT	-0.0982
ATACACG	-0.0943
TCTGGTG	0.00715
CCTGAGG	0.181
CCGCACG	0.0495
